Reference: PubChem BioAssay AID651820 (National Center for Advancing Translational Sciences (NCATS), 2012)
The campaign covered roughly 340,000 compounds. About 12,000 (3.5%) were called active. The inconclusive results got no clear call from the source; some entries with a clear call stand among them for comparison. Calls follow the shape of the dose curve; as a rule, active = well fitted inhibition curve with a large enough effect; inconclusive = small, poorly fitted or top-dose-only effect, or another doubt; inactive = no such curve, though single readings can be large or run the other way. No potency is given beside an inconclusive call; the fits are too rough.

Assay: qHTS Assay for Inhibitors of Hepatitis C Virus (HCV)
Conditions: Huh7.5.1 HCVcc-Cre (HCVcc is cell-culture hepatitis C virus) infection, luciferase reporter, 44 h; series mostly up to 41.8 µM
Procedure, shortened: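 After 44 h co-culture of compound, cells and HCVcc-Cre (~0.5 moi), substrate is added for 15 min at room temperature and luciferase measured over 15 sec. Cells were seeded at 1,000/well and pre-cultured 4 h.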
Potency is read from the fitted curve at half-maximal effect; tags tell the direction and shape of the fitted curve.

| SMILES | Potency |
| --- | --- |
| CCCn1c(-c2cccs2)nc2nc3ccccc3nc21 | inconclusive [inhibitor, single point] |
| C/C(=N\NC(=O)C1(C)CC1(Br)Br)c1ccc(NC(=O)c2ccc(C)o2)cc1 (stereo not drawn) | inconclusive [inhibitor, partial curve] |
| CCCNS(=O)(=O)c1ccc(OCC(=O)Nc2ccc3c(c2)OCCO3)c(C)c1 | inconclusive [inhibitor, single point] |
| O=C(CN(C(=O)c1ccccc1Cl)C1CCCCC1)Nc1ccc(Cl)c([N+](=O)[O-])c1 | inconclusive [inhibitor, single point] |
| CCc1ccc(Nc2ncc3c(n2)CC(c2ccc(OC)cc2)CC3=O)cc1 (stereo not drawn) | active: 3.98 µM |
| Cn1cc(C(=O)c2ccc(Cl)cc2Cl)cc1C(=O)N/N=C(\N)COc1ccc(Cl)cc1 | active: 12.6 µM |
| C[C@H](NC(=O)c1nc[nH]c1C(=O)NCc1ccc(CNC(=O)OC(C)(C)C)cc1)C(=O)OC(C)(C)C | inconclusive [inhibitor, single point] |
| CCOc1ccc(CCNC(=O)CN2CCN(Cc3ccc(F)cc3)C2=O)cc1OCC | inconclusive [inhibitor, partial curve] |
| CCCCCCCC[n+]1c(C)n(-c2ccccc2)c2ccc(NC(C)=O)cc21 | active: 14.1 µM |
| C[N+]1=C(/C=C/Nc2ccccc2Cl)C(C)(C)c2ccccc21 | inconclusive [inhibitor, single point] |
| CC[n+]1c(/C=C/N(C)c2ccccc2)oc2ccc(Cl)cc21 | inconclusive [inhibitor, full curve] |
| COCCN(C(=O)Cc1cccs1)C(C(=O)NCc1ccc(OC)cc1)c1ccc(C(C)C)cc1 (stereo not drawn) | inactive |
| COc1ccc2cnn(CCOc3cc(C)ccc3C(C)C)c(=O)c2c1OC | inconclusive [inhibitor, single point] |
| COC(=O)C1=C(c2ccc(OC(F)(F)F)cc2)C[C@@H]2CC[C@H]1N2C(=O)NCCOc1ccccc1 | inconclusive [inhibitor, full curve, poor fit] |
| CCN(C(=O)CSc1nc2ccc(OC)cc2[nH]1)C1CCS(=O)(=O)C1 (stereo not drawn) | inconclusive [inhibitor, single point] |
| C=CCn1c(=S)[nH]c2sc3c(c2c1=O)CCC3 | inactive |
| COC(=O)/C(=C\Nc1ccc(OC)cc1)NC(=O)c1ccc(Cl)cc1Cl | inconclusive [inhibitor, single point] |
| COc1ccc(C(=O)Cc2ccc(OC)c(OC)c2)cc1 | inconclusive [inhibitor, single point] |
